Data published in the supplement of paper PMC7826260.
Some of the results follow. Cleavage of a single-stranded DNA pool by Rep nickase domains was read by sequencing (3 µM enzyme, 1 h, 37 °C); shown is the middle of each 90-letter strand. Uncut reads are compared with the no-enzyme pool on a log2 scale; the lower, the more was cut; hits are not called. Because reads are shares of a total, they shift together; values above 0 arise when much of the pool is cut.

Experiments:
Experiment in all cases: uncleaved DNA left, log2 of reads against the no-enzyme library (log2 ratio); higher = less cleavage (more negative = more Rep cleavage of the k-mer); sequences stand for … in CTCGTCCG…ACCGGAGA
[1] = system: T1, Rep nickase domain of Muscovy duck circovirus
T1 sequence (protein, residues 1-111, tag omitted): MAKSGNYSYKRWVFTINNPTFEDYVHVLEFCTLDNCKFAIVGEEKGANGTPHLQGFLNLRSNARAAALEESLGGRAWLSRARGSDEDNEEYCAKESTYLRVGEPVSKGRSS
Method: (§1)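 A pool of 90-nt single-stranded DNAs with seven random bases just before the constant AC of the nick site (name = the seven bases) was cut by 3 µM recombinant His6-SUMO-tagged Rep nickase domain (300 nM DNA, 50 mM HEPES pH 8.0, 50 mM NaCl, 1 mM MnCl2, 1 h, 37 °C, three replicates). Uncut DNA was amplified and sequenced.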

[2] = system: T2, Rep nickase domain of banana bunchy top virus
T2 sequence (protein, residues 1-94, tag omitted): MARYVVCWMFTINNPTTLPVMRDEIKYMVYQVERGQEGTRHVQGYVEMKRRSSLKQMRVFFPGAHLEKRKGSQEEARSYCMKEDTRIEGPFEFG
Method: as §1

[3] = system: T3, Rep nickase domain of cabbage leaf curl virus
T3 sequence (protein, residues 1-116, tag omitted): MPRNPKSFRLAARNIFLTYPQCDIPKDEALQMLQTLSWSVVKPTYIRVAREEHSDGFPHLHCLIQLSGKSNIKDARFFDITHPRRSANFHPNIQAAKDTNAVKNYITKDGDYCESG
Method: as §1

[4] = system: T4, Rep nickase domain of chickpea chlorotic dwarf virus
T4 sequence (protein, residues 1-124, tag omitted): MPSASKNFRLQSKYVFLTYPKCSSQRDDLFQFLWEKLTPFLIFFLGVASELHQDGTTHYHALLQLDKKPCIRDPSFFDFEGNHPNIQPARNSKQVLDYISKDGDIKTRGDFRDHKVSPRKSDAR
Method: as §1

[5] = system: T5, Rep nickase domain of faba bean necrotic yellows virus
T5 sequence (protein, residues 1-98, tag omitted): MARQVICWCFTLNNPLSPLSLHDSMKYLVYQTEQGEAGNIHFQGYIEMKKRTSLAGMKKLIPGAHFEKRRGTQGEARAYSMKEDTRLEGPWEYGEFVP
Method: as §1

[6] = system: T6, Rep nickase domain of maize striate mosaic virus
T6 sequence (protein, residues 1-117, tag omitted): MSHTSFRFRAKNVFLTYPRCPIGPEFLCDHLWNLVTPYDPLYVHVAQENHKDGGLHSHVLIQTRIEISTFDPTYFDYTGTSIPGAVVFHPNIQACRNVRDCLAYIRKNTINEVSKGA
Method: as §1

[7] = system: T7, Rep nickase domain of porcine circovirus 2
T7 sequence (protein, residues 2-116, tag omitted): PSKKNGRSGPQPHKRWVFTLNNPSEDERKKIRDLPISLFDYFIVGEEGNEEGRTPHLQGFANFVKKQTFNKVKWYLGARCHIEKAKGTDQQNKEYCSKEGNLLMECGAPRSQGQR
Method: as §1

[8] = system: T8, Rep nickase domain of tomato golden mosaic virus
T8 sequence (protein, residues 1-124, tag omitted): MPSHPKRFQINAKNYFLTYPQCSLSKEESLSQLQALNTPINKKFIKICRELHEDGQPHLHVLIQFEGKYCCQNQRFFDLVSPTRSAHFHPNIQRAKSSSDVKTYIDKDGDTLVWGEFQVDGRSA
Method: as §1

[9] = system: T9, Rep nickase domain of tomato yellow leaf curl virus
T9 sequence (protein, residues 1-136, tag omitted): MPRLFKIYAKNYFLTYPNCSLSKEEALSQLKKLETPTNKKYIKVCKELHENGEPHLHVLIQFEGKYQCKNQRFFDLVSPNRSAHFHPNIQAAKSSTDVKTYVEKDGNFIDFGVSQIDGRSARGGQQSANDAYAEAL
Method: as §1

[10] = system: T10, Rep nickase domain of wheat dwarf virus
T10 sequence (protein, residues 1-137, tag omitted): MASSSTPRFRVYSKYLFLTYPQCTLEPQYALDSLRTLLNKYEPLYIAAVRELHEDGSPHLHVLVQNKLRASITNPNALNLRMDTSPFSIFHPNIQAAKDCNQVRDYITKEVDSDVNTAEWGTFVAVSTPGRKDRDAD
Method: as §1

Row | Sequence | uncleaved DNA left (log2) [1] | uncleaved DNA left (log2) [2] | uncleaved DNA left (log2) [3] | uncleaved DNA left (log2) [4] | uncleaved DNA left (log2) [5] | uncleaved DNA left (log2) [6] | uncleaved DNA left (log2) [7] | uncleaved DNA left (log2) [8] | uncleaved DNA left (log2) [9] | uncleaved DNA left (log2) [10]
1 | TCGGTTA | 0.207 | 0.0754 | 0.384 | 0.0294 | 0.281 | 0.612 | 0.0863 | 0.212 | 0.145 | 0.297
2 | GTGGGAG | 0.0053 | -0.0855 | 0.335 | 0.766 | -0.0408 | 0.356 | 0.141 | 0.172 | 0.174 | 0.0422
3 | CACTTTG | -0.117 | -0.0659 | -0.704 | -0.753 | 0.008 | -1.15 | -0.142 | -0.116 | -0.197 | -0.156
4 | TTAATAC | -1.13 | -0.159 | 0.183 | -1.02 | -0.128 | -0.446 | -1.92 | -0.04 | -0.0271 | -0.192
5 | GGATAAT | -0.0987 | 0.0981 | 0.741 | 1.75 | -0.132 | 2.09 | -1.07 | 0.131 | 0.0811 | 0.136
6 | GACGACT | 0.0156 | -0.00122 | 0.0874 | 0.407 | -0.121 | 1.58 | -0.102 | -0.127 | -0.0994 | 0.0153
7 | TTCCTGG | 0.0347 | -0.0194 | 0.183 | 0.633 | -0.123 | 0.798 | 0.0249 | -0.0744 | -0.149 | -0.0976
8 | TGACGTT | 0.0665 | -0.111 | 0.338 | 0.127 | 0.0436 | 1.36 | -0.0352 | -0.0544 | 0.142 | 0.014
9 | GACTCTA | 0.0434 | -0.02 | 0.0758 | -1.31 | 0.0327 | 0.693 | -1.55 | 0.00629 | 0.00766 | 0.141
10 | ATTGTTC | -0.0789 | -0.0783 | -0.207 | -2.18 | 0.0153 | -0.926 | -0.203 | -0.0776 | -0.01 | -0.21
11 | AAATGTG | 0.1 | 0.0621 | -0.732 | 0.0067 | 0.146 | -0.966 | 0.202 | 0.012 | 0.156 | 0.0769
12 | AGGTAGC | 0.108 | 0.0892 | -0.194 | -0.302 | 0.0378 | -0.676 | 0.186 | 0.0769 | 0.087 | 0.104
13 | GCCTTGA | -0.271 | -0.159 | -0.221 | 0.0694 | -0.15 | -0.44 | -0.0725 | -0.0836 | -0.101 | -0.112
14 | GCGCTGA | -0.129 | -0.168 | -0.0318 | 0.478 | -0.0352 | 1.5 | -0.108 | -0.178 | -0.24 | -0.0511
15 | GTGAGCT | -0.12 | -0.00514 | 0.24 | 0.6 | -0.089 | 0.805 | 0.0022 | -0.132 | 0.0656 | -0.0391
16 | CGCACGG | 0.0455 | 0.104 | 0.346 | 1.03 | 0.0426 | 1.67 | 0.143 | 0.114 | 0.0299 | 0.046
17 | GAGACTC | 0.03 | 0.0115 | 0.66 | 1.88 | 0.146 | 2.12 | 0.174 | 0.0836 | 0.0736 | 0.242
18 | AGATGTA | -0.0229 | 0.232 | 0.255 | 0.0437 | 0.0663 | 0.537 | -0.202 | 0.155 | 0.0185 | 0.101
19 | ACCTTTG | 0.115 | 0.0999 | -0.666 | -0.301 | 0.291 | -1.09 | 0.106 | 0.196 | 0.151 | 0.117
20 | AGTTAAC | 0.0204 | 0.0461 | -0.201 | -1.1 | -0.0442 | -0.35 | -0.0128 | 0.0272 | -0.00479 | 0.0105
21 | TCGCTTA | 0.0659 | -0.0648 | 0.118 | -1.07 | -0.023 | -0.382 | -0.176 | 0.00132 | -0.0103 | -0.0799
22 | GCACACG | -0.0724 | -0.0775 | -0.788 | -0.261 | -0.0621 | -0.951 | 0.112 | -0.0817 | -0.0655 | -0.144
23 | CGGCATC | 0.00988 | 0.0177 | 0.423 | 1.17 | -0.0322 | 1.26 | -0.0188 | -0.283 | -0.0862 | 0.0139
24 | AAATATG | 0.0109 | -0.106 | -0.534 | -0.417 | 0.0837 | -1.15 | 0.117 | 0.00222 | 0.0958 | 0.0181
25 | TAAACTG | 0.111 | 0.047 | -0.0243 | 0.427 | -0.00884 | 1.28 | 0.0997 | 0.0708 | -0.0399 | 0.0796
26 | GTCTCAG | 0.044 | 0.00888 | 0.24 | 0.698 | -0.0115 | 1.37 | 0.0785 | 0.162 | 0.00545 | -0.0399
27 | CGTCTTG | -0.213 | -0.143 | -0.287 | -0.0785 | -0.101 | 0.271 | -0.139 | -0.268 | -0.107 | -0.101
28 | TGGAGAG | 0.0777 | 0.0628 | 0.133 | 0.584 | 0.081 | -0.0365 | 0.154 | 0.118 | 0.0929 | 0.0336
29 | GACTGTG | 0.0771 | 0.000535 | -0.602 | -0.407 | -0.00639 | -1.04 | 0.121 | -0.069 | 0.116 | -0.0403
30 | TTCGCTA | 0.0528 | -0.229 | -0.0492 | -0.77 | 0.00434 | -0.68 | -0.0183 | 0.0456 | 0.00965 | -0.0578
